Reference: PMC4336329 (PLoS ONE, 2015)
In all, about 310,000 compounds went through this assay and about 2,200 (0.71%) showed an effect of 50% or more. The effect is printed as a negative number. Some of the results follow.

Biological target: human ether-à-go-go-related gene (hERG) potassium channel (human, UniProt Q12809)
Assay: primary screen, population patch clamp on CHO cells stably expressing hERG

Sequence of human ether-à-go-go-related gene (hERG) potassium channel (Q12809 whole entry, looked up): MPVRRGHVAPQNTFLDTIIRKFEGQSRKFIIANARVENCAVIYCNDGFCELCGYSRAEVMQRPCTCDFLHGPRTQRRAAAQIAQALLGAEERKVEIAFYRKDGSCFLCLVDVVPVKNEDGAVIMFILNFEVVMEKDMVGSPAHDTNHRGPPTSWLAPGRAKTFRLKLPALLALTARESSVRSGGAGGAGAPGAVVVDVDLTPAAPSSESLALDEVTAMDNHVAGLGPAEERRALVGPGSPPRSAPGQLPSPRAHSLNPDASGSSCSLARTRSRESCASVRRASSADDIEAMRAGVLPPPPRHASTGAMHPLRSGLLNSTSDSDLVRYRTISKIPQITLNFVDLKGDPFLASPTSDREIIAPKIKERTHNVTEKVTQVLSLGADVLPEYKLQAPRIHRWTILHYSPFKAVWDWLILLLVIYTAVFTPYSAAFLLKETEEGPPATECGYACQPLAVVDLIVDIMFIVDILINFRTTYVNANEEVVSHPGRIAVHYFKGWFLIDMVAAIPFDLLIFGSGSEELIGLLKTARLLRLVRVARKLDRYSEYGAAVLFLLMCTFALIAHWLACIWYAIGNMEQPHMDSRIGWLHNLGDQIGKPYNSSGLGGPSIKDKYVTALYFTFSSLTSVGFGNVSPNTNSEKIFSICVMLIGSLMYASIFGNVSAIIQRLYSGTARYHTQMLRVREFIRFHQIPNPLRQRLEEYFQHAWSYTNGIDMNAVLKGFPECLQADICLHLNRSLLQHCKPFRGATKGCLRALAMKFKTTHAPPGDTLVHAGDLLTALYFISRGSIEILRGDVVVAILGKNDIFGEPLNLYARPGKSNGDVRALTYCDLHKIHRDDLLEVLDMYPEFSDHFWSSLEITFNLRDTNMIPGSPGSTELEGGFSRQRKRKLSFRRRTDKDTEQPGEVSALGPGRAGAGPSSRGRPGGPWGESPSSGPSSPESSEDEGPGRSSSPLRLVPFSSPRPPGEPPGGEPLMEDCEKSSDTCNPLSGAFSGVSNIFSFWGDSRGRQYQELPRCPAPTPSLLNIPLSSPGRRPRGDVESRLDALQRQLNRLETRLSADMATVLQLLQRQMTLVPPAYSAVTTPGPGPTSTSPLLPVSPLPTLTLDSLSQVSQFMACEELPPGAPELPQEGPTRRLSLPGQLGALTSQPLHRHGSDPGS

Row | SMILES | hERG current change (%, negative = inhibition) at 1uM [%]
1 | CCOc1ccccc1/C=N/n1c(C)nc2ccccc2c1=O | 4.27
2 | COc1ccc(-c2c(-c3cc(OC)cc(OC)c3)n(C)c3ccc(-c4ccc(OC)cc4F)cc23)cc1 | 15.1
3 | Cc1c(NS(=O)(=O)c2ccc(C(=O)NCc3ccc(F)cc3)cc2)c(=O)n(-c2ccccc2)n1C | 5.65
4 | Cc1ccc(C2OC(=O)C=C2c2ccccc2)cc1 (stereo not drawn) | 8.51
5 | COC(CC(=O)NNC(=S)Nc1ccc(Cl)cc1)OC | 13.5
6 | Cc1[nH]ncc1N=Cc1ccc([N+](=O)[O-])cc1 | 2.91
7 | COC(=O)CN(c1ccc(C(C)C)cc1)S(=O)(=O)c1c(C)[nH]c(=O)[nH]c1=O | 16.5
8 | Cc1ccc(C(c2c(O)nc3n(c2=O)CCS3)c2c(O)nc3n(c2=O)CCS3)cc1 | 12.8
9 | CC(=O)N1CCOc2ccc(S(=O)(=O)Nc3ccc(C)cn3)cc21 | 4.68
10 | CCC(C)NC(=O)C1CCCCN1S(=O)(=O)c1ccc(F)cc1 (stereo not drawn) | -0.181
11 | CC1=CCP(=O)(c2ccccc2)C1 (stereo not drawn) | 10.3
12 | CC(C(=O)Nc1ccc(N2CCOCC2)cc1)N1C(=O)c2ccccc2C1=O (stereo not drawn) | 3.56
13 | Cc1noc(C)c1CSCC(=O)Nc1cc(Cl)ccc1N1CCCCC1 | 13.3
14 | O=c1cc2n(c(=O)[nH]1)CCC1=C2CCCC1 | 12.6
15 | CCCCC(C(=O)O)C(C)CC(=O)Nc1nccs1 (stereo not drawn) | 10.1
16 | O=C(CCCSc1ccccc1)Nc1cccc(CO)c1 | 11.2
17 | COCCn1c(SCC(=O)Nc2cc(C)on2)nnc1-c1ccco1 | 3.08
18 | Cc1ccc(CNC(=O)/C=C/c2ccc(Br)o2)cc1 | 5.37
19 | CCOC(=O)c1ccccc1NC(=O)C=C(C)C | 3.5

Row | SMILES | hERG current change (%, negative = inhibition) at 1uM [%]
20 | N#Cc1c(N)nc2c(c1-c1ccc3c(c1)OCO3)CCCCCC2 | -1.25
21 | CN(NC(=S)Nc1ccc(OC(F)F)cc1)C(=S)Nc1ccc(OC(F)F)cc1 | 6.54
22 | COc1ccc(CC(=O)NC(C)c2nnc(SCC(=O)Nc3nc(C)cs3)n2C)cc1 (stereo not drawn) | 11.6
23 | Cn1c2ccccc2c2cnn(CC(=O)Nc3ccccc3Br)c(=O)c21 | 6.93
24 | N/C(=N\OC(=O)c1cccc2ccccc12)c1ccccn1 | 7.84
25 | CCOC(=O)c1ccc(-n2c(CN3CCC(C(N)=O)CC3)nc3ccc([N+](=O)[O-])cc3c2=O)cc1 | 5.86
26 | CCOC(=O)c1c(C)oc2ccc(OC(=O)COc3c(F)c(F)c(F)c(F)c3F)cc12 | 7.82
27 | CCN(CC(=O)NCc1ccc(Cl)cc1)CC(=O)Nc1ccc(C(N)=O)cc1 | 14.9
28 | CC(Oc1cccc(Cl)c1)C(=O)Nc1cc(S(=O)(=O)N2CCOCC2)ccc1N1CCCCC1 (stereo not drawn) | 6.66
29 | COc1cc(OC)cc(C(=O)NCC(=O)OCC(=O)C(C)(C)C)c1 | 9.69
30 | O=C(NCCCn1ccnc1)c1ccc(Br)s1 | 0.298
31 | COc1ccc(NC(=O)CSc2ncnc3c2sc2ccccc23)c(OC)c1 | 3.79
32 | O=C(O)/C=C/C(=O)N1CCN(S(=O)(=O)c2cccc(C(F)(F)F)c2)CC1 | 1.07
33 | CC1=Nn2c(nnc2-c2cc(C)[nH]n2)SC1 | -4.46
34 | CCCNC(=O)c1c(O)c2c([nH]c1=O)CCCC2 | 14.6
35 | CC(C)=CC(=O)OCC(=O)NC(=O)NC(C)(C)C | 12.9
36 | O=C(COc1ccccc1)N1CCN(c2nnc(-c3ccccc3)c3ccccc23)CC1 | -16
37 | O=C(Cc1ccc(F)cc1)N1CCN(c2ccc(F)cc2)CC1 | 13.7
38 | COCCCNC(=O)Cc1ccccc1OC | -0.816

Row | SMILES | hERG current change (%, negative = inhibition) at 1uM [%]
39 | O=C(Nc1ccc(F)cc1)NC1CCCCC1 | 5.18
40 | NS(=O)(=O)c1ccc(CNC(=O)c2ccc(S(=O)(=O)NCc3ccco3)cc2)cc1 | 7.65
41 | C=C(C)CNC(=S)N/N=C1\CCCCc2ccccc21 | -32
42 | COc1ccc(C(C(=O)NC2CCCCC2)N(C(=O)Cc2c[nH]c3ccccc23)c2ccc(NC(C)=O)cc2)cc1OC (stereo not drawn) | -2.68
43 | CC(C)C(=O)N1CCN(c2nc(-c3ccccc3)c3c(c2C#N)CC(C)(C)OC3)CC1 | -3.96
44 | CCCC(c1nnnn1Cc1ccc(F)cc1)N1CCN(C2CCCCC2)CC1.Cl (stereo not drawn) | -44.6
45 | COc1ccc(-c2ccc(C#N)c(SCC(=O)Nc3sc4c(c3C#N)CCC4)n2)cc1OC | 7.22
46 | NS(=O)(=O)c1cc(C(=O)OCC(=O)Nc2ccc3[nH]c(=O)[nH]c3c2)ccc1Cl | 2.93
47 | CC(C)c1cccc(C2=CC(=O)C[C@H](c3ccc4c(c3)OCO4)C2)c1 | 5.21
48 | Cc1cccc(C(=O)NC(=S)Nc2c(C)n(C)n(-c3ccccc3)c2=O)c1 | 7.91
49 | O=C(Cc1cccs1)Nc1cccnc1 | 7.16
50 | COc1ccccc1N1CCN(S(=O)(=O)c2cccc3nsnc23)CC1 | 5.57
51 | O=C(CSc1nnc(-c2ccc(O)cc2)o1)Nc1ccc2c(c1)OCCO2 | -3.89
52 | Cc1ccc(Nc2ncnc3sc(C)c(C)c23)cc1C | 13.5
53 | Cc1csc(CN(C)C(=O)CC2C(=O)NCCN2Cc2ccc(-c3ccccc3)cc2)n1 (stereo not drawn) | 11.8
54 | Cc1ccc(NS(=O)(=O)c2ccc3c(c2)CC(=O)N3)cc1F | 23
55 | O=C(CCNc1cc(Cl)cc(Cl)c1)c1ccco1 | 7.24
56 | COc1ccc(NC(=O)COn2nnc3ccc(Cl)cc32)cc1OC | 14
57 | Cc1nc2nc[nH]n2c(=O)c1NS(=O)(=O)c1ccc([N+](=O)[O-])cc1 | 13.7
